{"source": "a collection of fitness landscapes (doi:10.1016/j.celrep.2020.107928)", "parents": {"B1": {"name": "Caulobacter ParB omega fusion; a variant is named by its letters at X, in order, B8GW30 (parent)", "chain": "MESVVVGEPGMSEGRRGLGRGLSALLGEVDAAPAQAPGEQLGGSREAPIEILQRNPDQPRRTFREEDLEDLSNSIREKGVLQPILVRPSPDTAGEYQIVAGERAWRAAQRAGLKTVPIMVRELDDLAVLEIGIIENVQRADLNVLEEALSYKVLMEKFERTQENIAQTIGKSXSHVANXMRLLXLPDEVQSYLVSGELTAXHARAIAAAADPVALAKQIIEGGLSVRETEALARKAPNLSAGKSKGGRPPRVKDTDTQALESDLSSVLGLDVSIDHRGSTGTLTITYATLEQLDDLCNRLTRGI"}}, "note": "The full ranking holds about 81,000 sequences; the median of “one-hybrid fitness for binding NBS DNA” is about -0.1, and the highest 2% start at about 0.36. The list shows a part of the results."}
{"variants_of": "B1", "assay": "one-hybrid fitness for binding NBS DNA (the Noc-binding site; scaled: cognate 1, non-cognate 0); higher = stronger binding", "details": "with NBS DNA site", "how_it_was_run": "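On M9-minus-histidine containing 0.1 mM IPTG and 5 mM 3-AT, E. coli USO cells with a HIS3 reporter, site 19 bp from the promoter, grew 48 hours at 37°C to select Caulobacter ParB libraries randomised at four specificity codons. Plasmids from before and after were Illumina-sequenced, with three replicate libraries pooled and variants under 10 reads left out. Fitness is the log change in variant-to-wild-type read ratio, rescaled against cognate and non-cognate.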"}
{"variant": "PKQS", "one-hybrid fitness for binding NBS DNA": "≤ 0.2"}
{"variant": "MNSA", "one-hybrid fitness for binding NBS DNA": "≤ 0.2"}
{"variant": "SIYC", "one-hybrid fitness for binding NBS DNA": "≤ 0.2"}
{"variant": "GIME", "one-hybrid fitness for binding NBS DNA": "≤ 0.2"}
{"variant": "SQRG", "one-hybrid fitness for binding NBS DNA": "≤ 0.2"}
{"variant": "GSTY", "one-hybrid fitness for binding NBS DNA": "≤ 0.2"}
{"variant": "RCCF", "one-hybrid fitness for binding NBS DNA": "≤ 0.2"}
{"variant": "QADT", "one-hybrid fitness for binding NBS DNA": 0.287}
{"variant": "LYLS", "one-hybrid fitness for binding NBS DNA": "≤ 0.2"}
{"variant": "DCQG", "one-hybrid fitness for binding NBS DNA": "≤ 0.2"}
{"variant": "MRKM", "one-hybrid fitness for binding NBS DNA": "≤ 0.2"}
{"variant": "DLYR", "one-hybrid fitness for binding NBS DNA": "≤ 0.2"}
{"variant": "AQAH", "one-hybrid fitness for binding NBS DNA": "≤ 0.2"}
{"variant": "IAKI", "one-hybrid fitness for binding NBS DNA": "≤ 0.2"}
{"variant": "ERLG", "one-hybrid fitness for binding NBS DNA": "≤ 0.2"}
{"variant": "VICA", "one-hybrid fitness for binding NBS DNA": "≤ 0.2"}
{"variant": "ETWT", "one-hybrid fitness for binding NBS DNA": "≤ 0.2"}
{"variant": "SSAN", "one-hybrid fitness for binding NBS DNA": "≤ 0.2"}
{"variant": "RHCK", "one-hybrid fitness for binding NBS DNA": "≤ 0.2"}
{"variant": "HKKY", "one-hybrid fitness for binding NBS DNA": "≤ 0.2"}
{"variant": "QKAM", "one-hybrid fitness for binding NBS DNA": "≤ 0.2"}
{"variant": "HGRI", "one-hybrid fitness for binding NBS DNA": "≤ 0.2"}
{"variant": "AVLM", "one-hybrid fitness for binding NBS DNA": "≤ 0.2"}
{"variant": "VKYG", "one-hybrid fitness for binding NBS DNA": "≤ 0.2"}
{"variant": "DPLG", "one-hybrid fitness for binding NBS DNA": "≤ 0.2"}
{"variant": "TRSA", "one-hybrid fitness for binding NBS DNA": "≤ 0.2"}
{"variant": "MQQR", "one-hybrid fitness for binding NBS DNA": "≤ 0.2"}
{"variant": "NRNL", "one-hybrid fitness for binding NBS DNA": "≤ 0.2"}
{"variant": "MRYR", "one-hybrid fitness for binding NBS DNA": "≤ 0.2"}
{"variant": "YSSV", "one-hybrid fitness for binding NBS DNA": "≤ 0.2"}
{"variant": "KCAR", "one-hybrid fitness for binding NBS DNA": "≤ 0.2"}
{"variant": "QMRP", "one-hybrid fitness for binding NBS DNA": 0.291}
{"variant": "LVMD", "one-hybrid fitness for binding NBS DNA": "≤ 0.2"}
{"variant": "SGNC", "one-hybrid fitness for binding NBS DNA": "≤ 0.2"}
{"variant": "KHPL", "one-hybrid fitness for binding NBS DNA": "≤ 0.2"}
{"variant": "RCCN", "one-hybrid fitness for binding NBS DNA": "≤ 0.2"}
{"variant": "DCPR", "one-hybrid fitness for binding NBS DNA": "≤ 0.2"}
{"variant": "INLR", "one-hybrid fitness for binding NBS DNA": "≤ 0.2"}
{"variant": "CINS", "one-hybrid fitness for binding NBS DNA": "≤ 0.2"}
{"variant": "VVMY", "one-hybrid fitness for binding NBS DNA": "≤ 0.2"}
{"variant": "INDG", "one-hybrid fitness for binding NBS DNA": "≤ 0.2"}
{"variant": "YAWT", "one-hybrid fitness for binding NBS DNA": "≤ 0.2"}
{"variant": "LPHR", "one-hybrid fitness for binding NBS DNA": "≤ 0.2"}
{"variant": "PNAS", "one-hybrid fitness for binding NBS DNA": "≤ 0.2"}
{"variant": "QCLM", "one-hybrid fitness for binding NBS DNA": "≤ 0.2"}
{"variant": "CLPC", "one-hybrid fitness for binding NBS DNA": "≤ 0.2"}
{"variant": "EAEA", "one-hybrid fitness for binding NBS DNA": "≤ 0.2"}
{"variant": "YLLG", "one-hybrid fitness for binding NBS DNA": "≤ 0.2"}
{"variant": "RNRQ", "one-hybrid fitness for binding NBS DNA": "≤ 0.2"}
{"variant": "RDAC", "one-hybrid fitness for binding NBS DNA": "≤ 0.2"}
{"variant": "RKVI", "one-hybrid fitness for binding NBS DNA": "≤ 0.2"}
{"variant": "QLNP", "one-hybrid fitness for binding NBS DNA": "≤ 0.2"}
{"variant": "ELQA", "one-hybrid fitness for binding NBS DNA": "≤ 0.2"}
{"variant": "NAQT", "one-hybrid fitness for binding NBS DNA": "≤ 0.2"}
{"variant": "PCNI", "one-hybrid fitness for binding NBS DNA": "≤ 0.2"}
{"variant": "YGIL", "one-hybrid fitness for binding NBS DNA": "≤ 0.2"}
{"variant": "TRQD", "one-hybrid fitness for binding NBS DNA": "≤ 0.2"}
{"variant": "PMNA", "one-hybrid fitness for binding NBS DNA": "≤ 0.2"}
{"variant": "MNQT", "one-hybrid fitness for binding NBS DNA": "≤ 0.2"}
{"variant": "IEHG", "one-hybrid fitness for binding NBS DNA": "≤ 0.2"}
{"variant": "RARD", "one-hybrid fitness for binding NBS DNA": "≤ 0.2"}
{"variant": "QSDS", "one-hybrid fitness for binding NBS DNA": "≤ 0.2"}
{"variant": "KFKR", "one-hybrid fitness for binding NBS DNA": 0.21}
{"variant": "ELLM", "one-hybrid fitness for binding NBS DNA": "≤ 0.2"}
{"variant": "KDYA", "one-hybrid fitness for binding NBS DNA": "≤ 0.2"}
{"variant": "ENQP", "one-hybrid fitness for binding NBS DNA": "≤ 0.2"}
{"variant": "AAYQ", "one-hybrid fitness for binding NBS DNA": "≤ 0.2"}
{"variant": "QSKP", "one-hybrid fitness for binding NBS DNA": 0.229}
{"variant": "PAVW", "one-hybrid fitness for binding NBS DNA": "≤ 0.2"}
{"variant": "CVPN", "one-hybrid fitness for binding NBS DNA": "≤ 0.2"}
{"variant": "SKMT", "one-hybrid fitness for binding NBS DNA": "≤ 0.2"}
{"variant": "EDPM", "one-hybrid fitness for binding NBS DNA": "≤ 0.2"}
{"variant": "CRNR", "one-hybrid fitness for binding NBS DNA": 0.259}
{"variant": "PQIS", "one-hybrid fitness for binding NBS DNA": "≤ 0.2"}
{"variant": "FNDG", "one-hybrid fitness for binding NBS DNA": "≤ 0.2"}
{"variant": "LMDC", "one-hybrid fitness for binding NBS DNA": "≤ 0.2"}
{"variant": "AETD", "one-hybrid fitness for binding NBS DNA": "≤ 0.2"}
{"variant": "PKIS", "one-hybrid fitness for binding NBS DNA": "≤ 0.2"}
{"variant": "DNIV", "one-hybrid fitness for binding NBS DNA": "≤ 0.2"}
{"variant": "YKSL", "one-hybrid fitness for binding NBS DNA": "≤ 0.2"}
{"variant": "RVGV", "one-hybrid fitness for binding NBS DNA": "≤ 0.2"}
{"variant": "WITG", "one-hybrid fitness for binding NBS DNA": "≤ 0.2"}
{"variant": "PCSY", "one-hybrid fitness for binding NBS DNA": "≤ 0.2"}
{"variant": "LTPE", "one-hybrid fitness for binding NBS DNA": "≤ 0.2"}
{"variant": "YNYG", "one-hybrid fitness for binding NBS DNA": "≤ 0.2"}
{"variant": "YTCT", "one-hybrid fitness for binding NBS DNA": "≤ 0.2"}
{"variant": "GFKT", "one-hybrid fitness for binding NBS DNA": "≤ 0.2"}
{"variant": "VVVV", "one-hybrid fitness for binding NBS DNA": "≤ 0.2"}
{"variant": "HVIT", "one-hybrid fitness for binding NBS DNA": "≤ 0.2"}
{"variant": "FTVT", "one-hybrid fitness for binding NBS DNA": "≤ 0.2"}
{"variant": "ACHG", "one-hybrid fitness for binding NBS DNA": "≤ 0.2"}
{"variant": "TAYN", "one-hybrid fitness for binding NBS DNA": "≤ 0.2"}
{"variant": "WRYT", "one-hybrid fitness for binding NBS DNA": "≤ 0.2"}
{"variant": "HVPM", "one-hybrid fitness for binding NBS DNA": "≤ 0.2"}
{"variant": "QMPL", "one-hybrid fitness for binding NBS DNA": "≤ 0.2"}
{"variant": "WAGT", "one-hybrid fitness for binding NBS DNA": "≤ 0.2"}
{"variant": "QIDT", "one-hybrid fitness for binding NBS DNA": "≤ 0.2"}
{"variant": "NNMS", "one-hybrid fitness for binding NBS DNA": "≤ 0.2"}
{"variant": "RTEL", "one-hybrid fitness for binding NBS DNA": "≤ 0.2"}
{"variant": "RYFQ", "one-hybrid fitness for binding NBS DNA": "≤ 0.2"}
{"variant": "LNTV", "one-hybrid fitness for binding NBS DNA": "≤ 0.2"}
{"variant": "GHYN", "one-hybrid fitness for binding NBS DNA": "≤ 0.2"}
{"variant": "IPAR", "one-hybrid fitness for binding NBS DNA": "≤ 0.2"}
{"variant": "KQNT", "one-hybrid fitness for binding NBS DNA": "≤ 0.2"}
{"variant": "HGDG", "one-hybrid fitness for binding NBS DNA": "≤ 0.2"}
{"variant": "ESRQ", "one-hybrid fitness for binding NBS DNA": "≤ 0.2"}
{"variant": "IFHR", "one-hybrid fitness for binding NBS DNA": "≤ 0.2"}
{"variant": "DNPG", "one-hybrid fitness for binding NBS DNA": "≤ 0.2"}
{"variant": "PNEG", "one-hybrid fitness for binding NBS DNA": "≤ 0.2"}
{"variant": "YRNY", "one-hybrid fitness for binding NBS DNA": "≤ 0.2"}
{"variant": "TATL", "one-hybrid fitness for binding NBS DNA": "≤ 0.2"}
{"variant": "PLTC", "one-hybrid fitness for binding NBS DNA": "≤ 0.2"}
{"variant": "PIYC", "one-hybrid fitness for binding NBS DNA": "≤ 0.2"}
{"variant": "LTYR", "one-hybrid fitness for binding NBS DNA": "≤ 0.2"}
{"variant": "RAYC", "one-hybrid fitness for binding NBS DNA": "≤ 0.2"}
{"variant": "SATT", "one-hybrid fitness for binding NBS DNA": "≤ 0.2"}
{"variant": "ARME", "one-hybrid fitness for binding NBS DNA": "≤ 0.2"}
{"variant": "VQWS", "one-hybrid fitness for binding NBS DNA": "≤ 0.2"}
{"variant": "GPTS", "one-hybrid fitness for binding NBS DNA": "≤ 0.2"}
{"variant": "ELQG", "one-hybrid fitness for binding NBS DNA": "≤ 0.2"}
{"variant": "WLKQ", "one-hybrid fitness for binding NBS DNA": "≤ 0.2"}
{"variant": "DFNS", "one-hybrid fitness for binding NBS DNA": "≤ 0.2"}
{"variant": "EVRI", "one-hybrid fitness for binding NBS DNA": "≤ 0.2"}
{"variant": "TDAD", "one-hybrid fitness for binding NBS DNA": "≤ 0.2"}
{"variant": "LRQT", "one-hybrid fitness for binding NBS DNA": "≤ 0.2"}
{"variant": "SRFH", "one-hybrid fitness for binding NBS DNA": "≤ 0.2"}
{"variant": "VCNL", "one-hybrid fitness for binding NBS DNA": "≤ 0.2"}
{"variant": "CYCL", "one-hybrid fitness for binding NBS DNA": "≤ 0.2"}
{"variant": "RKTR", "one-hybrid fitness for binding NBS DNA": 0.602}
{"variant": "MKCL", "one-hybrid fitness for binding NBS DNA": "≤ 0.2"}
{"variant": "SMSA", "one-hybrid fitness for binding NBS DNA": "≤ 0.2"}
{"variant": "WKFG", "one-hybrid fitness for binding NBS DNA": "≤ 0.2"}
{"variant": "NCPT", "one-hybrid fitness for binding NBS DNA": "≤ 0.2"}
{"variant": "QGDS", "one-hybrid fitness for binding NBS DNA": "≤ 0.2"}
{"variant": "IATR", "one-hybrid fitness for binding NBS DNA": "≤ 0.2"}
{"variant": "IRAR", "one-hybrid fitness for binding NBS DNA": 0.294}
{"variant": "SLHD", "one-hybrid fitness for binding NBS DNA": "≤ 0.2"}
{"variant": "TEWL", "one-hybrid fitness for binding NBS DNA": "≤ 0.2"}
{"variant": "ATKV", "one-hybrid fitness for binding NBS DNA": "≤ 0.2"}
{"variant": "VLLE", "one-hybrid fitness for binding NBS DNA": "≤ 0.2"}
{"variant": "WRSG", "one-hybrid fitness for binding NBS DNA": "≤ 0.2"}
{"variant": "PMNY", "one-hybrid fitness for binding NBS DNA": "≤ 0.2"}
{"variant": "NRPC", "one-hybrid fitness for binding NBS DNA": "≤ 0.2"}
{"variant": "SAVE", "one-hybrid fitness for binding NBS DNA": "≤ 0.2"}
{"variant": "HRPM", "one-hybrid fitness for binding NBS DNA": "≤ 0.2"}
{"variant": "LNQD", "one-hybrid fitness for binding NBS DNA": "≤ 0.2"}
{"variant": "RWNW", "one-hybrid fitness for binding NBS DNA": "≤ 0.2"}
{"variant": "REIE", "one-hybrid fitness for binding NBS DNA": "≤ 0.2"}
{"variant": "KGAS", "one-hybrid fitness for binding NBS DNA": "≤ 0.2"}
{"variant": "PTVD", "one-hybrid fitness for binding NBS DNA": "≤ 0.2"}
{"variant": "EEMR", "one-hybrid fitness for binding NBS DNA": "≤ 0.2"}
{"variant": "IRGL", "one-hybrid fitness for binding NBS DNA": "≤ 0.2"}
{"variant": "ATPQ", "one-hybrid fitness for binding NBS DNA": "≤ 0.2"}
